Laboratory results: PubChem BioAssay AID504832 (National Center for Advancing Translational Sciences (NCATS), 2011)
The whole screen tested about 310,000 compounds, of which about 18,000 (5.8%) were called active. This list was built around the results that the source calls inconclusive (neither active nor inactive); the mix of calls is not that of the screen. Calls come from the whole dose curve; as a rule, active = well fitted inhibition curve with a large enough effect; inconclusive = small, poorly fitted or top-dose-only effect, or another doubt; inactive = no such curve, though single readings can be large or run the other way. No potency is given beside an inconclusive call; the fits are too rough.

test: Primary qHTS for delayed death inhibitors of the malarial parasite plastid, 48 hour incubation; conditions: P. falciparum luciferase growth in erythrocytes; series mostly up to 28.7 µM; activity change, negative = inhibition: at the top concentration
Summary of the method: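 First compound was added to culture medium, then infected red cells at 0.1% parasitemia and 2% hematocrit (final). After incubation at 37 C under 5% CO2, luciferase detection reagent was dispensed and light output recorded.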
% is set by controls: 0 for no effect and ±100 for the full control effect; potency is the fitted concentration of half-maximal effect; tags give direction and shape of the fitted curve.

Row | Compound | Potency | activity change, negative = inhibition
1 | C#CCN(Cc1ccco1)C(=O)c1cc(COc2ccc(F)cc2Cl)on1 | inconclusive [inhibitor, single point] | –
2 | CCc1cc(C(c2ccncc2)N2CCN(C)CC2)c(NC(=O)c2ccccc2)s1 (stereo not given) | active: 13.1 µM | –
3 | CCN(CC)c1ccc(S(=O)(=O)N2CCOCC2)cc1NC(=O)CSc1ccccc1 | inconclusive [inhibitor, partial curve] | –
4 | O=C(O)c1ccc(C(=O)Nc2cccc3ccccc23)c(C(=O)O)c1 | – | inactive: 42%
5 | COc1ccc(-c2[nH]c(-c3cccc(OC)c3)nc2SCC(=O)NCc2ccco2)cc1 | inconclusive [inhibitor, partial curve] | –
6 | CCC1(CC)Cc2ccccc2C2=C(C(=O)N3CCCCC3)C(=O)C(=O)N21 | – | inactive: 10.2%
7 | Cc1ccc(S(=O)(=O)N2CCCCC2CCNC(=O)C(=O)NCc2ccccc2C)cc1 (stereo not given) | inconclusive [inhibitor, partial curve] | –
8 | CN(C(=O)c1ccc(NC(=O)Cc2cccc(NC(=O)C3CCN(C(=O)CCc4ccccc4)CC3)c2)cc1)C1CCCC1 | active: 9.28 µM | –
9 | NC(=O)CCN(C(=O)c1cccc(S(=O)(=O)N2CCc3ccccc32)c1)c1ccccc1 | inconclusive [inhibitor, partial curve, poor fit] | –
10 | Cc1ccc(-c2nc(CN(C)C3CCOC3)c(C)o2)s1 (stereo not given) | – | inactive: 24.9%
11 | COc1ccc2[nH]c3nc(SCc4nnc(-c5ccccc5)o4)nnc3c2c1 | inconclusive [inhibitor, single point] | –
12 | COc1ccc(OC)c(NC(=O)CSc2nncc3ccc(OC)c(OC)c23)c1 | inconclusive [inhibitor, single point] | –
13 | O=C(Nc1ccnn1C1CCN(CCCC2CCCC2)CC1)c1ccccc1Cl | inconclusive [inhibitor, single point] | –
14 | CCOc1ccccc1NC(=O)CSc1nc(=O)n(Cc2ccncc2)c2c1CCC2 | inconclusive [inhibitor, single point] | –
15 | Cc1cccc(NC(=O)c2cc(Cl)nc3ccccc23)c1 | inconclusive [inhibitor, single point] | –
16 | COc1ccc(/C=C/C(=O)Nc2ccc(S(=O)(=O)N3CCOCC3)cc2)c(OC)c1 | active: 9.28 µM | –
17 | CCn1c(=O)n(CC)c2cc(N3CCCC3)c(NC(=O)c3cccc(Cl)c3)cc21 | inconclusive [inhibitor, partial curve] | –
18 | Cc1occc1-c1nnc(SCC(=O)c2c(N)n(Cc3ccccc3)c(=O)n(C)c2=O)n1C | inconclusive [inhibitor, partial curve, poor fit] | –

Row | Compound | Potency | activity change, negative = inhibition
19 | O=C(O)/C(=C1/OC(=O)c2ccccc21)c1ccccc1 | inconclusive [inhibitor, single point] | –
20 | O=C1C=C(c2cccc(Cl)c2O)C[C@@H](c2ccc3c(c2)OCO3)C1 | active: 11.7 µM | –
21 | N#Cc1ccccc1OCC(=O)N(Cc1nnc(-c2ccccc2Cl)o1)C1CC1 | inconclusive [inhibitor, single point] | –
22 | COC(=O)c1sc2nc(C)c([N+](=O)[O-])c(C)c2c1N | inconclusive [inhibitor, single point] | –
23 | CC1=C(C(=O)OCC2CCCO2)C(c2coc3ccc(C)cc3c2=O)C2=C(CCCC2=O)N1 (stereo not given) | inconclusive [inhibitor, full curve, poor fit] | –
24 | COC(=O)CNC(=O)COC(=O)/C=C/c1ccc2ccccc2n1 | inconclusive [inhibitor, single point] | –
25 | COc1ccc(Cl)cc1C(=O)Nc1ccc(CN2CCCCC2)cc1 | inconclusive [inhibitor, single point] | –
26 | O=C(Nc1ccc(N2CCOCC2)c(Cl)c1)c1ccc(Br)o1 | inconclusive [inhibitor, full curve, poor fit] | –
27 | N#CCC1c2ccccc2CCN1C(=O)Nc1cccc(Cl)c1 (stereo not given) | inconclusive [inhibitor, partial curve] | –
28 | Cc1cc(C)cc(N(CC(=O)NCc2ccc(F)cc2)C(=O)c2snc(C(N)=O)c2N)c1 | inconclusive [inhibitor, single point] | –
29 | O=C(c1ccccc1)N1CCN(c2ccc(N3CCOCC3)nn2)CC1 | inconclusive [inhibitor, partial curve, poor fit] | –
30 | CCC(C)NCCOc1cc(C)cc(C)c1C (stereo not given) | – | inactive: -11.8%
31 | CN1CCN(c2ccc([N+](=O)[O-])cc2Cl)CC1 | – | inactive: -0.942%
32 | COc1ccc(OC)c(S(=O)(=O)ON2C(=O)c3ccccc3C2=O)c1 | – | inactive: 41.8%
33 | O=C(c1ccccc1)N1N=C(c2ccccc2)CC1c1cccs1 (stereo not given) | inconclusive [inhibitor, single point] | –
34 | COc1ccc(CN2C(=O)C(C)=C(C)C2OC)cc1 (stereo not given) | inconclusive [inhibitor, partial curve, poor fit] | –
35 | Cc1nnc(SCC(=O)Nc2cccc(C(F)(F)F)c2)n1Cc1ccco1 | inconclusive [inhibitor, single point] | –
